# Test results taken from the supplement of paper PMC11417369.
# The list shows a part of the results.
# Tested on: PfAP2-HC AP2 domain (GST-tagged)
# Assay: gcPBM binding intensity (ln(normalized median fluorescence intensity)); higher = stronger DNA binding
# Method in brief: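 GST-tagged P. falciparum DNA-binding domains produced in E. coli were incubated for 1 h on an Agilent 4 × 180k array of primer-extended double-stranded 36-bp intergenic genomic probes with negative controls. Binding intensity is the highest Masliner-normalised natural-log median intensity across replicate spots of either probe orientation, with bound protein detected by Alexa488 anti-GST antibody at 488 nm.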
row,Sequence,gcPBM binding intensity (ln)
1,AAATAAAATAATTATAATACTAAAAATAATACATAA [GTGCAC_negctrl_site106],9.75
2,TTTTTTTTGTAGAATTGTACTTATAAAATATATATA [XGTACX_site2116],9.33
3,AAAAAATGGATGATCACACACTTCATAAAAGTTGCA [CACACA_site7109],9.73
4,AATGAGCGTTAAAAATGTACAGAAAATTGGAATTAT [XGTACX_site5743],9.81
5,AAAACTTTTAGTTATACACACAACATAGAAAATATT [CACACA_site6287],9.84
6,AACAATCAAATAGACACACACACACCCAAACATAAA [CACACA_site2757],10.6
7,CTCCTACAAATATGTAGTACATTCAAAATAAATACC [XGTACX_site8207],9.45
8,GTAAAAAATATGAATACACACATAAAGGAAATAACA [CACACA_site1997],10.2
9,AAAAAAAAAAAATTCACACACATATAAAAAATTAAG [CACACA_site728],10
10,AAAAAAAAAAAAAAAAGTACAGACGTCAAAAAAAAA [XGTACX_site4817],9.51
11,TAATATATAAGTATTTGTACATATTCATTCATCTAT [XGTACX_site2935],9.73
12,TTTTTTTTTTTTTTTTTTTTTTTTGGGTCCCATACA [CACACA_negctrl_site913],8.88
13,TTTTAATTATATTATGCACACACAATTGGAAAAAAA [CACACA_site8598],9.76
14,AACAAATAAGATAAATGACTTAACAAAAGAAAAAAG [CACACA_negctrl_site1409],9.96
15,CTTATACATTATTAACGTACATGTTATATGAATAAC [XGTACX_site5752],9.6
16,TTTTTTTTTTTTTTTTTTTTTTTTAAATGCTTCTAA [TGCATGCA_negctrl_site253],8.94
17,CACTATCAATATATATGTACATATATATATATATAT [XGTACX_site7854],9.76
18,GTCACATTGTTATATTGTACAAATGTCGTTCTTTTT [XGTACX_site8098],9.78
19,TAAATATATAAATACACACAAACATACATATATATA [CACACA_site4050],10.1
20,ATATAAAAATATATTAATATAAATAAATGGACATAT [XGTACX_negctrl_site488],10.1
21,AAAAAAAAAAAAAAATGTACTTTTATTATTAATATA [XGTACX_site6357],9.48
22,TTTGAACTTTTATATACACACATTATTATAGTATAG [CACACA_site6851],9.77

row,Sequence,gcPBM binding intensity (ln)
1,AGTTCATATTTAAAAAGTACATATTTAAAAACTTCT [XGTACX_site4882],9.4
2,ATGCATATATTTATGTGTACATATATTTGTAGGGGG [XGTACX_site6063],11.2
3,TTCTTTGTTTTTTTTTTTTTTTTAAAAGATAATATT [XGTACX_negctrl_site381],9.5
4,TTTATTTTTCATTGGGGTACACAAGTTTATTTTTGA [XGTACX_site4262],9.63
5,ATATCGTTTTTAAATTGTACATTCACTATAGAATAA [XGTACX_site6442],9.52
6,ATATATTTATTTTGTGCACACAACGCAAACCTTTTA [CACACA_site3508],10.2
7,ATTTTTTCTTTTCGATGTACCCTTCTTATTCTTTAT [XGTACX_site3782],10.1
8,TATATCGCCTTCAAAAGTACTCATATAAAAAAAAAA [XGTACX_site7123],9.04
9,ATATCGAAAATTTGGTGTACATTTTTATTTGTTCAA [XGTACX_site3094],9.65
10,AGAATATATAAGTATACACACATATATATATATATA [CACACA_site201],10
11,GATATTACGTGTTTGGTATTTTTTGATGTTAATAGG [CACACA_negctrl_site105],9.75
12,TATAAAATAATTAAATGTACATAATATATAAAATAT [XGTACX_site6777],9.75
13,TTATAAATATTCACTGTGCACTGATGGAATATAAAT [GTGCAC_site9739],9.47
14,AACAAAGAGAAATAAACACACACAAAATAAAGAAAA [CACACA_site8704],10.7
15,ATTAATTAAAATAGTTGTACAATCAAAAAAACAAAA [XGTACX_site7660],9.91
16,TTTTTGTATGCTTCCCGACTACATTATGTCGTAAAT [GTGCAC_negctrl_site164],9.75
17,AAATTAAAAATAATTACACACATAGAAAAGTTATAT [CACACA_site7137],10.1
18,TTTTGCAAATATTACTGTACACAATCTCATATAATT [XGTACX_site2584],9.67
19,TTTTCAGAAAGACATGCATACAAAAATAAAAAAGAT [TGCATGCA_site814],9.71
20,CATTCTACAATAAAAAGTACATATATATATTATATA [XGTACX_site921],9.51
21,TCAAAAAAAATTTTAGTGCATATTTTAGTCAAAACA,9.39
22,ATTTAAATAATATGTACACACATTTAAAAAGTTATA [CACACA_site7347],9.68
